± gives the standard deviation. In all, about 5,500 sequences were measured (“pre-steady-state target cleavage rate”: median about 0.1, highest 2% from about 0.64 on). The list shows a part of the results, in another mix than the full data.
What follows are sequences tested on MIWI (PIWIL1) piRISC loaded with piRNA #2 (30 nt) (assay: pre-steady-state target cleavage rate (min^-1); MIWI and MILI are mouse PIWI proteins and EfPiwi is from a freshwater sponge; tags in brackets are library labels; higher = faster piRNA-guided slicing of the target). Details: guide: piRNA #2 5'p-UUAGGUAACCCAGUAGAUCCAGAGGAAUUC; auxiliary factor: 500 nM mouse GTSF1.
Outline: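 Cleave-'n-Seq used a transcribed, DNA-blocked target RNA library at 0.1 nM and active affinity-purified piRISC with one synthetic guide at 1 nM, with or without 500 nM GTSF1 partner protein, in HEPES–potassium acetate buffer at 33 °C for 0–8 or 0–960 min. Uncleaved targets were sequenced and normalised to depth and to weakly complementary targets, and three trials were pooled with k3 capped at 0.0001 min^-1. The pre-steady-state cleavage rate was estimated by a burst-and-steady-state fit.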

Row | Sequence | pre-steady-state target cleavage rate
1 | CUUAUCCUCUGGAUCACUGGGUUACCUAA | 0.0212 ± 0.0064
2 | CUUAUCCUCUGGAUCUACUGCGUUACCUUA | 0.29 ± 0.042
3 | CUUAAGGACUGGAUCUACACGGUUACCUAA | 0.0368 ± 0.018
4 | CUAUUCCUCAGGAUCUUCUGGGUUACCUAA | 0.387 ± 0.052
5 | CUUAUCCUCUGGAUCUACUGGGUUACCAUAA | 0.452 ± 0.06
6 | CUUAAGGAGACCUUCUACUGAGUUACCUAA | 0.00528 ± 0.0031
7 | CUUAUCCUCUGCAUCUACUCGGUUACCUAA | 0.0719 ± 0.013
8 | CUUAAGGAGAGGAUCUACUGGGUUAUCCUAA | 0.00542 ± 0.0033
9 | CUUAUCCUCUGGAUCUGCUGGGUUACCUAA | 0.425 ± 0.064
10 | CUUAAGCUCUGGAUCUACUGGUUUACCUAA | 0.0992 ± 0.016
11 | CUUAAGGUCUCGAUCUACUCGGUUACCUAA | 0.0432 ± 0.0073
12 | CUUAAGGUCUGGAUCUACUGGUUACCUAA | 0.0114 ± 0.0052
13 | CUUUUCCUCUCGAUCUACUGGGUUACCAAA | 0.64 ± 0.048
14 | CUUAAGGACUCGAUCUACUGCGUUACCUAA | 0.0122 ± 0.0077
15 | CUUAAGGAGUGGUUCUACUGGGUUACCUAA | 0.0735 ± 0.012
16 | GAUUUCCUCUGGAUCUACAGGGUUACCUAA | 0.0988 ± 0.018
17 | CUUAAGCUCUGGAUCUACUGGGUUAGCUUA | 0.042 ± 0.0072
18 | GAAAUCCACUGGAUCUACUGGGUUACCUAA | 0.314 ± 0.036
19 | GAGUUCCUCUGGAUCUACUGGGUUACCUAA | 0.208 ± 0.046
20 | CAAAACCUCUGGAUCUACUGGGUUACCUAA | 0.205 ± 0.038
21 | CUUAUGCUCUGGAUCUACUGGGUUACCAAA | 0.203 ± 0.021
22 | GAAAUCCUCUGGAUCUACUGGGUUUCCUAA | 0.293 ± 0.058
23 | CUAUUGCUCUGGAUCUACUGGGUUAGCUAA | 0.311 ± 0.05
24 | CUUAAGGUCUGGAUCUACUGGGUUAGGUAA | 0.0168 ± 0.01

Row | Sequence | pre-steady-state target cleavage rate
25 | CUUAAGCUCUGGAUCUACUGGGAUACCUUA | 0.0617 ± 0.012
26 | CUUUUCCUGUGGAUCUACUGGCUUACCUAA | 0.0557 ± 0.013
27 | CUUAAGGACUGGAUCUACUGGGUUACCUA | 0.133 ± 0.048
28 | CUUAACCUCUGGAUCUACUGCGUUACCAAA | 0.166 ± 0.029
29 | CAAUUCCUCUGGAUCAACAGGGUUACCUAA | 0.221 ± 0.03
30 | CUUAAGCUCUGGAUCUACUGGGUUUGGUAA | 0.0512 ± 0.013
31 | CAAUUGCUCUGGAUCUACUGGGUUACCUUA | 0.212 ± 0.048
32 | CAAUUGCUCUGGAUCUAGUGGGUUACCUAA | 0.0592 ± 0.0099
33 | CUUAAGGAGUGGAUAUACUGGGUUACCUAA | 0.0512 ± 0.02
34 | GAACUUCCUCUGGAUCUACUGGGUUACCUAA | 0.037 ± 0.02
35 | GAAUUCCUCUGGAUCGACUGGGUUACCUAA | 0.295 ± 0.048
36 | CUUUUCCUGUGGAUCUACUGGGUUACCUUA | 0.403 ± 0.049
37 | CUAUUCCUCUGGAUCUACUGGGAUUACCUAA | 0.202 ± 0.041
38 | GAAUUCCUCUGGAUCUACUGGGAUUCCUAA | 0.0604 ± 0.021
39 | CUUAAGCUCUGGAUCUACUGCGUUACGUAA | 0.209 ± 0.023
40 | CUUUUCGUCUGGAUCUACUGGGUUACCAAA | 0.239 ± 0.045
41 | CUUAAGGAGUGGAUCUACUGGGUGACCUAA | 0.0213 ± 0.0095
42 | CUUAAGCUCUGGAUCUACAGCGUUACCUAA | 0.067 ± 0.013
43 | CUUUUCCUCUGGAUCAACUGGGUUAGCUAA | 0.134 ± 0.029
44 | CUAAUCCUCAGGAUCUACUGGGUUACCUAA | 0.55 ± 0.055
45 | GAAUUCGUCUGGAUCUACUGGGUUACCUAA | 0.393 ± 0.059
46 | CUUAACCUCUGGAUCUACUCGGAUACCUAA | 0.0189 ± 0.01
47 | CUUAAGCUCUGGAUCUACACGGUUACCUAA | 0.0859 ± 0.011
48 | CUUAAGGUCUGGAUCUACACGGUUACCUAA | 0.126 ± 0.016

Row | Sequence | pre-steady-state target cleavage rate
49 | GAAUUCCUCUGGAUCUACUGGGUUACCAA | 0.381 ± 0.064
50 | CAAUUCCUCUUGAUCUACUGGGUUACCUAA | 0.866 ± 0.044
51 | CUUAAGGUCUUGGAUCUACUGGGUUACCUAA | 0.291 ± 0.03
52 | GAAUUGCUCUCGAUCUACUGGGUUACCUAA | 0.452 ± 0.071
53 | CUAUUCCUCUGGAUCUAGAGGGUUACCUAA | 0.0256 ± 0.0071
54 | CUUAAGGACAGGAUCUACUCGGUUACCUAA | 0.00947 ± 0.0079
55 | GAAUUCCUCUGGAUGUUCUGGGUUACCUAA | 0.268 ± 0.035
56 | CUUAAGGUCUGGACUCUACUGGGUUACCUAA | 0.0637 ± 0.021
57 | CUUAUCCUCUGGAUCUACUCGGUUACGUAA | 0.117 ± 0.036
58 | CUUAUCCUCUGGUUCAACUGGGUUACCUAA | 0.469 ± 0.034
59 | CAAUUCCUCUGGAUCUACUGGGUUUGGUAA | 0.0353 ± 0.017
60 | CUAUUCCUCUGGAUCUACUGGGUUACCUUAA | 0.302 ± 0.043
61 | GAAUUCCUCUGGAUCUACUGGGUUUGGAUA [g7:g30:cont:t1A] | 0.176 ± 0.059
62 | CAAUUCCUCUGGAUCUACUGGGUUGACCUAA | 0.35 ± 0.045
63 | CUAUUCGUCUCGAUCUACUGGGUUACCUAA | 0.599 ± 0.055
64 | CAAUUCCUCUGGAUCUACGGGUUACCUAA | 0.0524 ± 0.011
65 | CUUUUCCUCUCGAACUACUGGGUUACCUAA | 0.463 ± 0.033
66 | CUUAUCCUCUCGUUCUACUGGGUUACCUAA | 0.41 ± 0.039
67 | CUUAACCUCUGGAACAACUGGGUUACCUAA | 0.257 ± 0.024
68 | CUUAACGACUGGAUCUACUGGGUUACCUAA | 0.2 ± 0.036
69 | CUAUUCACUCUGGAUCUACUGGGUUACCUAA | 0.241 ± 0.048
70 | CUUAAGGUCUGGAACUACAGGGUUACCUAA | 0.0897 ± 0.022
71 | CUUAACCUCUGGAUCUUCUGGGUUACCUUA | 0.168 ± 0.028
72 | GAAUUCCUCUGGAACUACUGGCUUACCUAA | 0.133 ± 0.021
